These results are taken from FireProtDB (doi:10.1042/bj2870481).

For the data set the following is noted: Gallus gallus, 25 °C, GdnHCl, Absorbance, Unknown, KCl 0.1 M, reversible: yes.

With Lysozyme C wild type (letters omitted), the denaturant m value reads like this: (pH 0.34) 1.71 kcal/mol/M; (pH 0.64) 1.71 kcal/mol/M; (pH 2.03) 1.91 kcal/mol/M; (pH 7) 2.11 kcal/mol/M. Further, the “denaturant midpoint (higher = more stable)” value (“denaturant midpoint” for short) (pH 0.34) was determined as 1.52 M, the “denaturant midpoint” value (pH 0.64) was determined as 1.59 M, the “denaturant midpoint” value (pH 2.03) turned out to be 2.13 M and the “denaturant midpoint” value (pH 7) stood at 4.21 M. For the same substance, the unfolding free energy (pH 0.34) stood at 2.61 kcal/mol, the unfolding free energy (pH 0.64) is 2.72 kcal/mol, the unfolding free energy (pH 2.03) came out at 4.08 kcal/mol and the unfolding free energy (pH 7) turned out to be 8.89 kcal/mol.
